Experimental data published in the supplement of paper PMC11417369.
± gives the standard deviation of the averaged measurements. This is one part of the list.

These sequences were tested on PfAP2-LT AP2 domain (GST-tagged) (assay: gcPBM binding intensity (ln(normalized median fluorescence intensity)); higher = stronger DNA binding).
How it was run: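 GST-fused DNA-binding domains of P. falciparum, expressed in E. coli, were applied at about 25 μg on average for 1 h to an Agilent 4 × 180k array of primer-extended double-stranded 36-bp intergenic genomic probes and negative controls. Binding intensity is the highest Masliner-normalised natural-log median intensity across replicate spots of either probe orientation, measured with Alexa488 anti-GST antibody and a 488 nm scan.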

Sequence | gcPBM binding intensity (ln)
ATGTCTACAGTTTTTGCACACATATAAATAAAAAAA [CACACA_site3600] | 8.93 ± 0.39
AAACATCATAAATATACACACATATTTATATTTATA [CACACA_site6437] | 8.95 ± 0.4
CAAAATAAAAAATTCACACACATATAAATATAAATA [CACACA_site7065] | 9.12 ± 0.43
AAAAAAAAAGGTACTACACACTATTATCAATAGAAA [CACACA_site91] | 8.82 ± 0.49
TACTTATTATGAAACACACACCAAAACTACAGAATA [CACACA_site6265] | 9.24 ± 0.27
ATATATATATGTATATGTACATATATATACACATAT [XGTACX_site140] | 9.1 ± 0.28
TAAATATATTTATATTGTACATTTATGTTGATACCA [XGTACX_site228] | 8.61 ± 0.43
TATATATATAATATATGTACTGATATGCTATTTACT [XGTACX_site841] | 8.86 ± 0.42
ATATTTACCACTGTATGTACATATATAAAATATATC [XGTACX_site6373] | 8.91 ± 0.35
TTTTGTGAATTTTAGATTTTTTAATACAAGAATATT [CACACA_negctrl_site606] | 8.16 ± 0.48
ATTTAATTTATTATGTGTACTTATTTAATTAAATTA [XGTACX_site3171] | 8.58 ± 0.44
CTGATATATAGATGTAGTACATAAAAATGACGAATT [XGTACX_site5612] | 8.99 ± 0.47
TTATATATTTATAAATGTACATATAATTTTTTTATA [XGTACX_site4696] | 8.4 ± 0.44
CATATAATTATTGAAAGTACATACAAATAAAAAGAT [XGTACX_site6535] | 9.06 ± 0.44
ATATTTTTATTTAAATCACATCATTTTGTTTATTTG [CACACA_negctrl_site1056] | 8.74 ± 0.54
AAAAAAATAAAATGTTCACACATTTCACAATTACTT [CACACA_site4859] | 8.81 ± 0.51
TGAGCACAAATACAGGTGCATATAAAATATATGACG | 9.04 ± 0.49
AGAGGCCAGCTTTCTCTTCTAAACATGTACAAAAAT [GTGCAC_negctrl_site98] | 8.57 ± 0.47
TATATATAAAACATATGTACATATATATATATATAT [XGTACX_site419] | 9.31 ± 0.54

Sequence | gcPBM binding intensity (ln)
AATAGTTAAATGTACACACTAACTACATGGAATATA [CACACA_site3262] | 9.03 ± 0.4
ACATGAAACTATAAACGTACATACATACATATATAT [XGTACX_site5011] | 9.14 ± 0.3
ATATTTTATAATTTTACACACCATATAAAATAATTC [CACACA_site2797] | 8.71 ± 0.47
AAGTAAAAAAATAGCACACACACAAAAACACCCACA [CACACA_site1291] | 9.92 ± 0.16
ATATATATATAGTGCACACATATAAAATATATATAA [CACACA_site2745] | 9.24 ± 0.32
TTTACAGATACTTGCTCACACATATGTATAAAAATA [CACACA_site4928] | 8.68 ± 0.33
TATAATATATATAGGAGTACGTATGTATATTTATAA [XGTACX_site3521] | 8.87 ± 0.37
CACTAATAGTGGATTACACACATATATATGTATATA [CACACA_site2531] | 9.01 ± 0.35
CGCGAAGTAGCATTCACACACAGCAAAATATATATA [CACACA_site3495] | 9.36 ± 0.52
ACTTACACATTTATTACACACATAAAGGAAAATTTT [CACACA_site1356] | 8.99 ± 0.42
ATATTTAAATGGATCACACATATATATATATATATA [CACACA_site5255] | 9.66 ± 0.11
TTAAAAAATAACAAGGTGCAAATAGGTTTATAAAAT | 8.94 ± 0.52
TTTTTAACATTTAAATGTACATGTTACAATTTAAAG [XGTACX_site8789] | 8.34 ± 0.39
TACTAAAACCCATACACACACATATATATAGTACCA [CACACA_site3184] | 9.56 ± 0.26
ACAGCATAATCATGCTGTACATTATTTTCTTAAGTA [XGTACX_site8456] | 8.47 ± 0.39
TTTTTATTTTTATACATATAATATATTATGATTAAA [CACACA_negctrl_site214] | 8.28 ± 0.51
AGAGACTTAGAAAACACACATACATAAGATAATTTA [CACACA_site2377] | 8.96 ± 0.47
TGCAAAAAATTCCACACACACACACGCATATAAATA [CACACA_site6696] | 10 ± 0.3
AAAATAGCTGTATAGAGTACATATAAATAATGTTGT [XGTACX_site5692] | 8.93 ± 0.45

Sequence | gcPBM binding intensity (ln)
TAAAATAAAAGTGAAACACACAGTATTTTACAACAT [CACACA_site3811] | 8.89 ± 0.53
CATTTTTCTATATGTGCATGTAAGATAAGAATAATT [TGCATGCA_site107] | 8.48 ± 0.3
TCATATAATATTTATATGCACACTTTTCTATATATA [CACACA_site4075] | 8.98 ± 0.38
TTTCGTCATTTTGTTTTTAATTCTACAATTTAGTTA [XGTACX_negctrl_site286] | 8.7 ± 0.47
TTTTGAAGAAAATTCTTTTTTTTTTTTTTTTGTAAA [CACACA_negctrl_site102] | 7.76 ± 0.65
CCACTTTTTGAAGACACACACAAAAAAAAAAAAAAA [CACACA_site2551] | 8.79 ± 0.41
ATATAATGACAAGTATAAGTATCACAAAGAAATAAA [CACACA_negctrl_site1403] | 8.85 ± 0.55
ATAACAATTATTTGTCGACACACGTATATGTTATTT [CACACA_site1766] | 9.41 ± 0.38
CAAGCTTTTTCCTTTACACACATTAATTATATATAT [CACACA_site1423] | 9.12 ± 0.33
TATATTAAACTTTGCACACATAATTTAACTACAAAG [CACACA_site3441] | 8.97 ± 0.4
AATCATTTATTGATGGTGCAATATACCATCTAATGA [GTGCAC_site9440] | 8.49 ± 0.41
ATATATATATATATATGTACTTAAAAAATATATACA [XGTACX_site8952] | 9.065 ± 0.0071
AAAAAAAAAAAAAAAAAAAAAAAAAAAATACGAAAG [GTGCAC_negctrl_site729] | 8.74 ± 0.4
CTTTTTAATTAATACACACACACACGGATATAAATA [CACACA_site7145] | 9.63 ± 0.16
TATTTTTTTTGTGTGTGTCCTCATGTAATACTGCAA [XGTACX_site1380] | 9.36 ± 0.56
CATAATACATATAACACACACAATTATACATAAAAT [CACACA_site3233] | 9.56 ± 0.36
AAAAAAAAAAAACACACACACACACCCAAATATATA [CACACA_site150] | 10.22 ± 0.028
TAAAAATGGAAACACACACACATAAATATATTTTAT [CACACA_site2513] | 9.71 ± 0.25
TAACCACAATTTTAATGTACATATATATTTATATAT [XGTACX_site8968] | 8.72 ± 0.56
